{"source": "PubChem BioAssay AID504332", "about": "(National Center for Advancing Translational Sciences (NCATS), 2011)", "note": "The campaign covered roughly 350,000 compounds. About 31,000 (8.9%) were called active. Inconclusive means that the source gave no clear call. Such entries were picked first, then a sample of the others. Calls come from the whole dose curve; as a rule, active = well fitted inhibition curve with a large enough effect; inconclusive = small, poorly fitted or top-dose-only effect; inactive = no such curve, though single readings can be large or run the other way. Where the call is inconclusive, the potency comes from a doubtful curve fit. % is set by controls: 0 for no effect and ±100 for the full control effect; potency is the fitted concentration of half-maximal effect; tags give direction and shape of the fitted curve.", "data": [{"biological_target": "Histone-lysine N-methyltransferase EHMT2 (Homo sapiens) (UniProt Q96KQ7)", "sequence (Q96KQ7 whole entry, looked up)": "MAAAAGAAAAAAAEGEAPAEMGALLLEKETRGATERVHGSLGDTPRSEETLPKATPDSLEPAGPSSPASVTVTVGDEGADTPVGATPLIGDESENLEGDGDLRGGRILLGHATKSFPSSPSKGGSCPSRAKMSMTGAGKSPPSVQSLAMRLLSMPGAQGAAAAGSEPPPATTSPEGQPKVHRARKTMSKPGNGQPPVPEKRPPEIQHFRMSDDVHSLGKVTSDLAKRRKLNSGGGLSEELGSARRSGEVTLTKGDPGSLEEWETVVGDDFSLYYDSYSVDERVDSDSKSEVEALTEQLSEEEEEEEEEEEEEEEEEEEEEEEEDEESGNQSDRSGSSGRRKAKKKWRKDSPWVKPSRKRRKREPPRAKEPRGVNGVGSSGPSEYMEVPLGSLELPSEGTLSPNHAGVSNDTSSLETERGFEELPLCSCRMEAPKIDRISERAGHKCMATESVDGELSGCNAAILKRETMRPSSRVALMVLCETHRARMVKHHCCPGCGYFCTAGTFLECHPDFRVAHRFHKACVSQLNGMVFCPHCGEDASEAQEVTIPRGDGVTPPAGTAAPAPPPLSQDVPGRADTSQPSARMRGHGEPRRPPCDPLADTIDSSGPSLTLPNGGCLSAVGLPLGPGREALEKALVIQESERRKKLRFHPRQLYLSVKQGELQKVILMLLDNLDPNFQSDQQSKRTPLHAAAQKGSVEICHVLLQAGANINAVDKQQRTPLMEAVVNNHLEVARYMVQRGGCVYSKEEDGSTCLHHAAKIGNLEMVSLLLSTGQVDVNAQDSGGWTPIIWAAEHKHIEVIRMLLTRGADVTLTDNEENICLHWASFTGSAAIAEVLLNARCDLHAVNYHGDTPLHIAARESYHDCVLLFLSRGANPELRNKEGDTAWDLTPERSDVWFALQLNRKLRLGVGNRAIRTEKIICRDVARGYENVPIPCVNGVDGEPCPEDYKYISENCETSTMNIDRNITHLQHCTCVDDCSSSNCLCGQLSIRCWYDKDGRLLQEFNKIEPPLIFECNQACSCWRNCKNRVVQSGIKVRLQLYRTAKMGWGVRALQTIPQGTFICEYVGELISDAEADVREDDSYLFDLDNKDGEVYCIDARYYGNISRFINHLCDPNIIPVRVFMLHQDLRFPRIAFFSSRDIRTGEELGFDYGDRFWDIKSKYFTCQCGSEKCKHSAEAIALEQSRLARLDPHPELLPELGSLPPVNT", "assay": "qHTS Assay for Inhibitors of Histone Lysine Methyltransferase G9a; note: nearly all actives have a fitted effect of over 75% in size", "conditions": "G9a H3K9 monomethylation, AlphaScreen, 2 h; activity, negative = inhibition: at 59 µM (top of the series) unless noted", "summary_of_the_method": "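Step 1: enzyme (final 20 nM) with compound, 15 min RT. Step 2: substrate peptide 500 nM and SAM 20 uM, 2 h RT. Step 3: anti-H3K9me1 antibody and AlphaScreen beads, 10 min, then plate read.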", "values": [{"smiles": "Cn1nc(C(=O)Nc2ccc3c(c2)OCO3)c2ccccc2c1=O", "activity, negative = inhibition": "inactive: 80.3% [at 102 µM]"}, {"smiles": "Nc1nc(SCC(=O)c2cc3ccccc3o2)n[nH]1", "Potency": "inconclusive: 50.1 µM [inhibitor, partial curve, poor fit]"}, {"smiles": "N#Cc1c(NC(=O)C2CC(c3ccccc3Cl)=NO2)sc2c1CCC2", "note": "(stereo unspecified)", "Potency": "inconclusive: 89.1 µM [inhibitor, single point]"}, {"smiles": "COc1ccccc1C(OC(=O)c1cccs1)C(=O)NCc1ccco1", "note": "(stereo unspecified)", "Potency": "active: 44.7 µM"}, {"smiles": "CNC(=O)C(=O)N/N=C/c1ccc(Br)cc1", "Potency": "inconclusive: 44.7 µM [inhibitor, single point]"}, {"smiles": "COc1cc(NC(=O)C(CCS(C)(=O)=O)N2Cc3ccccc3C2=O)cc(OC)c1OC", "note": "(stereo unspecified)", "Potency": "inconclusive: 39.8 µM [inhibitor, single point]"}, {"smiles": "CC1=NN(c2nc3ccccc3[nH]2)C(=O)C1Cc1ccccc1", "note": "(stereo unspecified)", "Potency": "inconclusive: 50.1 µM [inhibitor, partial curve]"}, {"smiles": "COc1ccc(C)cc1NC(=O)c1nn(-c2ccccc2)cc1OC", "Potency": "inconclusive: 89.1 µM [inhibitor, single point]"}, {"smiles": "CCOC(=O)CSc1nnc(CNC(=O)c2ccc(OC)c(OC)c2)n1C", "Potency": "inconclusive: 50.1 µM [inhibitor, partial curve]"}, {"smiles": "COc1ccc(-c2noc(CCCC(=O)NCC3CCCO3)n2)cc1", "note": "(stereo unspecified)", "Potency": "inconclusive: 7.94 µM [inhibitor, partial curve, poor fit]"}, {"smiles": "COc1cccc(C2CC(=O)N3CN(C4CCCCC4)CSC3=C2C#N)c1", "note": "(stereo unspecified)", "Potency": "active: 1.26 µM"}, {"smiles": "CCOC(=O)c1c(C)[nH]c(CCC(=O)NCc2ccccc2C)c1C", "activity, negative = inhibition": "inactive: 6.83%"}, {"smiles": "O=C(Nc1nnc(SCc2ccc(F)cc2)s1)c1cccnc1Cl", "Potency": "inconclusive: 89.1 µM [inhibitor, partial curve, poor fit]"}, {"smiles": "CN(C)c1ccc(NC(=O)CSC2=Nc3ccccc3C3=NC(CC(=O)NCc4ccccc4)C(=O)N23)cc1", "note": "(stereo unspecified)", "Potency": "active: 1.58 µM"}, {"smiles": "COCC(=O)Nc1nc(-c2ccccc2)c(C)s1", "Potency": "active: 44.7 µM"}, {"smiles": "CCOc1ccccc1CN(CCc1ccc2c(c1)OCO2)Cc1cccc(OC)c1OC", "Potency": "active: 2.51 µM"}, {"smiles": "OC[C@H](O)[C@H](O)[C@@H](O)[C@@H](O)[C@@H]1SC(c2ccccc2)=NN1c1ccccc1", "Potency": "active: 11.2 µM"}, {"smiles": "COc1ccc2nc(Nc3nc(-c4ccncc4)cs3)sc2c1", "activity, negative = inhibition": "inactive: 4.27% [at 102 µM]"}, {"smiles": "CCN(CC)C(=O)c1cccc(NC(=O)c2ccc3c(=O)n4c(nc3c2)CCC4)c1", "Potency": "inconclusive: 50.1 µM [inhibitor, partial curve, poor fit]"}, {"smiles": "COc1ccc(-n2cc(C(=O)NC(C)c3ccccc3)c3ccccc3c2=O)cc1", "note": "(stereo unspecified)", "Potency": "inconclusive: 10 µM [inhibitor, partial curve, poor fit]"}, {"smiles": "CSc1nc(Cl)c(Cc2ccc(OC(C)C)cc2)c(N(C)C)n1", "activity, negative = inhibition": "inactive: 101% [at 102 µM]"}, {"smiles": "CC(=O)C1=C(O)C(=O)N(c2ccc(O)cc2)C1c1cccc([N+](=O)[O-])c1", "note": "(stereo unspecified)", "Potency": "active: 50.1 µM"}, {"smiles": "COc1ccc(-c2nc(NC(=O)CSCCO)sc2C)cc1", "Potency": "inconclusive: 79.4 µM [inhibitor, partial curve, poor fit]"}, {"smiles": "Cc1n[nH]c(=S)n1/N=C/c1ccc(-c2ccccc2[N+](=O)[O-])o1", "Potency": "inconclusive: 1.58 µM [inhibitor, single point]"}, {"smiles": "N#Cc1nc(-c2ccccc2Cl)oc1N1CCOCC1", "activity, negative = inhibition": "inactive: -42.9%"}, {"smiles": "Cc1ccc(N2CC(c3nnc(NC(=O)c4ccco4)s3)CC2=O)cc1C", "note": "(stereo unspecified)", "Potency": "inconclusive: 20 µM [inhibitor, partial curve]"}, {"smiles": "O=C(O)/C(=C/c1ccco1)NC(=O)c1ccccc1", "Potency": "active: 44.7 µM"}, {"smiles": "CC(C)CCNC(=S)Nc1ccc([N+](=O)[O-])cc1", "Potency": "inconclusive: 31.6 µM [inhibitor, single point]"}, {"smiles": "CCOC(=O)c1c(CN2CCCCC2)n(C)c2cc(Br)c(O)cc12", "Potency": "inconclusive: 89.1 µM [inhibitor, single point]"}, {"smiles": "Cc1cn(CC2COC(C)(C)O2)c(=O)[nH]c1=O", "note": "(stereo unspecified)", "activity, negative = inhibition": "inactive: -2.27% [at 102 µM]"}, {"smiles": "CCC(=O)N(Cc1cc2cc(OC)ccc2[nH]c1=O)c1cccc(C)c1", "Potency": "inconclusive: 89.1 µM [inhibitor, partial curve, poor fit]"}, {"smiles": "COc1ccc(CN(CCc2ccccc2)Cc2ccccc2)cc1OC", "Potency": "inconclusive: 0.126 µM [inhibitor, full curve, poor fit]"}, {"smiles": "CCOC(=O)c1c(C)[nH]c2cc(Br)c(OC)cc12", "activity, negative = inhibition": "inactive: 49.6% [at 2.33 µM]"}, {"smiles": "COc1ccc(OC)c2c(C)c(C)[nH]c12", "Potency": "active: 39.8 µM"}, {"smiles": "CCn1nc(C)c(CNC(=O)CC2C(=O)NCCN2CC(C)C)c1C", "note": "(stereo unspecified)", "Potency": "inconclusive: 50.1 µM [inhibitor, single point]"}, {"smiles": "O=C(Nc1nc2c(s1)CCCC2)c1cc(-c2ccccc2)nc2ccccc12", "Potency": "active: 12.6 µM"}, {"smiles": "Cc1sc2ncn(CC(=O)N3CCN(c4ccccc4)CC3)c(=O)c2c1S(=O)(=O)N1CCOCC1", "Potency": "inconclusive: 89.1 µM [inhibitor, single point]"}, {"smiles": "O=C(Nc1ccc(NC(=O)c2ccco2)nc1)c1ccccn1", "Potency": "inconclusive: 17.8 µM [inhibitor, partial curve, poor fit]"}, {"smiles": "COc1ccc(C(=O)NCCn2cc(SCC(=O)NCc3ccco3)c3ccccc32)cc1", "activity, negative = inhibition": "inactive: -11.3% [at 2.33 µM]"}, {"smiles": "O=C(O)CCC(=O)N1N=C(c2ccccc2)CC1c1ccc2c(c1)OCO2", "note": "(stereo unspecified)", "activity, negative = inhibition": "inactive: 20.5% [at 102 µM]"}, {"smiles": "O=C(NCC1CCCO1)C(c1ccc(F)cc1)N(CCCN1CCOCC1)C(=O)c1ccc(-c2ccccc2)[nH]1", "note": "(stereo unspecified)", "Potency": "inconclusive: 56.2 µM [inhibitor, partial curve]"}, {"smiles": "CCOC(=O)c1cnc2c(ccc3ccccc32)c1Nc1ccc(OC)c(OC)c1", "Potency": "active: 8.91 µM"}, {"smiles": "Cc1cccc(C2C=C(c3ccc(F)cc3)Nc3nc4ccccc4n32)c1", "note": "(stereo unspecified)", "Potency": "inconclusive: 31.6 µM [inhibitor, single point]"}, {"smiles": "C=CCn1c(=O)c(C(=O)NCCNCC)c(O)c2ccccc21", "Potency": "inconclusive: 89.1 µM [inhibitor, single point]"}, {"smiles": "Cc1ccc(C(O)(C(=O)NNS(=O)(=O)c2ccc(C)cc2)c2ccc(C)cc2)cc1", "activity, negative = inhibition": "inactive: -12%"}, {"smiles": "COc1ccc(S(=O)(=O)NNC(=O)C23CC4CC(CC(C4)C2)C3)cc1", "Potency": "active: 79.4 µM"}, {"smiles": "C=CCn1c(SCC(=O)c2cc(C)n(CCOC)c2C)nc2sc(C)c(C)c2c1=O", "Potency": "inconclusive: 2.24 µM [inhibitor, full curve, poor fit]"}, {"smiles": "COc1ccc2[nH]c(=O)c(NC(N)=S)nc2c1", "activity, negative = inhibition": "inactive: -7.83% [at 2.33 µM]"}, {"smiles": "Cc1ccc(S(=O)(=O)NNC(=O)C(=O)NNS(=O)(=O)c2ccc(C)cc2)cc1", "activity, negative = inhibition": "inactive: 18.6% [at 102 µM]"}, {"smiles": "O=[N+]([O-])c1ccc2nc(SCc3cn4cc(Cl)ccc4n3)[nH]c2c1", "Potency": "inconclusive: 8.91 µM [inhibitor, partial curve, poor fit]"}, {"smiles": "Cc1c(C)c2cc(Cl)c(OC(C)C(=O)NCCN3CCOCC3)cc2oc1=O", "note": "(stereo unspecified)", "activity, negative = inhibition": "inactive: 56.1% [at 102 µM]"}, {"smiles": "Cc1ccc(OCCCC(=O)Nc2ccc(S(=O)(=O)Nc3cc(C)nc(C)n3)cc2)cc1", "Potency": "inconclusive: 56.2 µM [inhibitor, partial curve]"}, {"smiles": "CCCOc1ccc(-c2nc(C#N)c(N3CCc4ccccc4C3)o2)cc1", "Potency": "inconclusive: 17.8 µM [inhibitor, partial curve]"}, {"smiles": "CCCCOC(=O)c1ccc(NC(=O)COC(=O)C2CSC3(C)CCC(=O)N23)cc1", "note": "(stereo unspecified)", "Potency": "inconclusive: 5.62 µM [inhibitor, single point]"}, {"smiles": "O=C(O)c1ccccc1NC(=O)c1ccccc1Nc1ccccc1", "Potency": "inconclusive: 0.631 µM [inhibitor, full curve, poor fit]"}, {"smiles": "Nc1nc(-c2ccco2)nn1C(=O)c1ccccc1", "Potency": "inconclusive: 39.8 µM [inhibitor, single point]"}, {"smiles": "COc1cccc2[nH]c3c(N4CCC(C)CC4)ncnc3c12", "activity, negative = inhibition": "inactive: 25%"}, {"smiles": "Cc1ccccc1N=C1NC(=O)/C(=C/c2cccnc2)S1", "Potency": "inconclusive: 79.4 µM [inhibitor, partial curve, poor fit]"}, {"smiles": "COc1ccc(O[C@H]2C=C[C@@H](c3ccccc3)O[C@@H]2COC(=O)CC/C(C)=N/OC[C@@H](O)COCc2ccco2)cc1", "Potency": "inconclusive: 79.4 µM [inhibitor, single point]"}, {"smiles": "Cc1cc(C)n2nc3nc(N4CCCC4)nc(-c4ccccc4)c3c2n1", "activity, negative = inhibition": "inactive: -2.89% [at 12.7 µM]"}, {"smiles": "Clc1ccc(-c2nnc(-c3ccccc3)nc2N2CCSCC2)cc1", "Potency": "inconclusive: 10 µM [inhibitor, partial curve, poor fit]"}, {"smiles": "Cc1cc(C)c(NC(=O)C2CCCCN2C)c(C)c1", "note": "(stereo unspecified)", "Potency": "active: 89.1 µM"}, {"smiles": "COc1ccc(NC(=O)c2cc(C3CC3)nc3c2c(C)nn3-c2ccc(C)cc2)cc1OC", "activity, negative = inhibition": "inactive: -2.54%"}, {"smiles": "CC(C)N(Cc1nc(COc2ccccc2)no1)Cc1nccn1C", "activity, negative = inhibition": "inactive: 6.51% [at 102 µM]"}, {"smiles": "CC(NC(=O)COC(=O)CCN1C(=O)C2CC=CCC2C1=O)c1ccc(Br)cc1", "note": "(stereo unspecified)", "activity, negative = inhibition": "inactive: 6.59% [at 12.7 µM]"}, {"smiles": "Cc1ccc(/C=N/NC(=O)CN2C(=O)CSc3ccccc32)o1", "Potency": "active: 44.7 µM"}, {"smiles": "Cc1cc(Cl)ccc1OCCCC(=O)Nc1cccc(-n2cnnn2)c1", "activity, negative = inhibition": "inactive: -4.08% [at 102 µM]"}, {"smiles": "COc1cccc(NC(=O)C(C)(C)C)c1", "Potency": "active: 3.16 µM"}, {"smiles": "CC(C)CN1CCN(Cc2ccc(CN3CCCCC3)s2)CC1CCO", "note": "(stereo unspecified)", "Potency": "inconclusive: 70.8 µM [inhibitor, partial curve]"}, {"smiles": "Cc1cccc(-c2nc(C#N)c(NCC3CCCO3)o2)c1", "note": "(stereo unspecified)", "Potency": "inconclusive: 79.4 µM [inhibitor, partial curve, poor fit]"}, {"smiles": "Cn1cnnc1SCC(=O)Nc1ccc2nc(SCc3ccccc3F)sc2c1", "Potency": "inconclusive: 50.1 µM [inhibitor, partial curve, poor fit]"}]}]}
